In the supplement of paper PMC3334620:
Whole data set: some 33,000 sequences, median “E-score (-0.5 to 0.5)” near -0.04, cut for the highest 2% near 0.36. The list shows a part of the results.

target: T1, Hmlalpha2 (UniProt P0CY09); test: PBM E-score (8-mer binding enrichment) (E-score (-0.5 to 0.5)); higher = stronger / more preferred TF binding; most listed sequences are background and not binding sites; conditions: protein concentration: 200 nM; construct: GST-full length
T1 sequence: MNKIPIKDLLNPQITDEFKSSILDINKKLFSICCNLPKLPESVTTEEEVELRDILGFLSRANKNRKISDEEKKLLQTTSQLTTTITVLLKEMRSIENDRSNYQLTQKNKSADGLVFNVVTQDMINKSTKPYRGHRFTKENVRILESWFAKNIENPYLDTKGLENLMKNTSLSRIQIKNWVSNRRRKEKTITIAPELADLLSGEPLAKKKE
In short: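 Yeast transcription factors, full-length or as DNA-binding domains, were expressed with a GST tag using PURExpress in vitro transcription/translation. At about 100-200 nM they were applied to universal all-10-mer Agilent arrays, double-stranded by primer extension on fresh or once-stripped slides. Fluorescent anti-GST detected bound protein, and masliner normalised the scans. E-scores for ungapped eight-base words, pooled with reverse complements, came from the Universal PBM Analysis Suite.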

Row | Sequence | PBM E-score
1 | CTGTAACC | 0.0254
2 | CAGGGATG | 0.0507
3 | AACTCACG | 0.205
4 | TAGTGAGA | -0.0514
5 | AGTGGTCG | -0.0589
6 | CCTATACG | -0.0575
7 | TAGTTCAA | 0.0271
8 | GGAGTCCC | -0.261
9 | ATCTAACA | 0.113
10 | ATGGAGCG | -0.0564
11 | GGGAAGGA | -0.0843
12 | CGGCGGTA | -0.0603
13 | AAAAAATG | 0.0711
14 | GTTATAGA | 0.368
15 | CCAACGGC | -0.235
16 | CGGATTAG | -0.233
17 | TCCGCAAA | -0.0439
18 | GCGGCTGA | -0.32
19 | AACGTCCA | 0.0778
20 | AAGATCTA | -0.0518
21 | CCCGGTGC | -0.339
22 | CCCTATAC | -0.13
23 | ATTGGCGG | 0.0274
24 | CGGAAGCA | 0.175
25 | ATCGGACA | -0.0193

Row | Sequence | PBM E-score
26 | ACCCCAAG | -0.151
27 | GACCTTAC | 0.0244
28 | CGTGAATA | 0.245
29 | AAGTACCC | -0.0658
30 | CATATATC | -0.00387
31 | CCTGTTAG | 0.0951
32 | ACTCGTAA | 0.187
33 | ATCTGGCG | 0.00932
34 | GAGGCGGA | -0.292
35 | CCAACAGC | -0.143
36 | CCAGACAG | -0.175
37 | TGGTGACA | 0.087
38 | ATCGCGAT | 0.131
39 | CGCTGGTC | -0.201
40 | ATCTCTGG | -0.171
41 | AGGTGTAA | 0.317
42 | CAAAGTGC | -0.151
43 | GATCCTAC | -0.077
44 | ACTCCCCT | -0.21
45 | CGCCACAA | 0.038
46 | TCGCCACA | 0.0514
47 | ACGGGGGC | -0.271
48 | CGTGATTC | -0.115
49 | CCTTTGAA | -0.0803
50 | CATAGTAA | 0.303

Row | Sequence | PBM E-score
51 | TAGATCCA | -0.0367
52 | CTGTGGCA | -0.115
53 | GGGGCCGA | -0.332
54 | ACTATCAC | 0.033
55 | AAGGTACT | 0.178
56 | ATGGCCTC | -0.299
57 | AACCGAGC | -0.0678
58 | AGTGCAAG | 0.0766
59 | AGCGAGTC | -0.136
60 | GAGCGCCC | -0.29
61 | CACAATTC | 0.126
62 | TACATAAA | 0.369
63 | GAGAATGC | 0.0274
64 | TCAATAGA | -0.158
65 | ACAACGCC | 0.182
66 | CGGCCGAG | -0.0616
67 | CCCCAAGC | -0.0543
68 | CCTAGGGA | -0.159
69 | GTGCGATA | -0.161
70 | ATGACTTG | -0.0811
71 | ACTATGTA | 0.444
72 | ATGACTGC | -0.135
73 | GAGTGTGC | 0.0117
74 | CTGAACTC | -0.27
75 | TCCTCCAA | -0.214

Row | Sequence | PBM E-score
76 | GCGTGAAA | 0.156
77 | ACTCCAAT | -0.194
78 | AATACCCG | 0.154
79 | ATCTTCGA | -0.0503
80 | CTGGCAAA | -0.187
81 | GCCCACGA | -0.235
82 | GAGTAAAA | 0.237
83 | ACTAAATG | 0.045
84 | CAGGAAGC | 0.113
85 | GCGTGCAA | 0.0696
86 | AAGCTGGG | -0.111
87 | AAAACCGG | -0.0753
88 | AGTGCCAC | -0.215
89 | AGATGTCC | -0.135
90 | CTAAGACC | -0.104
91 | CTCCATAA | -0.0461
92 | AAGTGCCG | 0.00934
93 | GCTGGACA | -0.16
94 | AGAGCCAA | 0.146
95 | TGGGACCA | -0.0796
96 | AAAAAACC | 0.0318
97 | CCGCGAGG | -0.209
98 | CTCTTCGA | -0.0692
99 | AGCGGACG | -0.202
100 | AGTCTCCC | -0.235

Row | Sequence | PBM E-score
101 | CGCTGAAA | -0.0693
102 | AGCTATAT | 0.00915
103 | GGGCGAGA | -0.26
104 | GCCTCCTA | -0.285
105 | TCAATTCA | 0.0847
106 | CCCTTCCC | -0.199
107 | TAGCCTAA | -0.105
108 | GAGGCGGC | -0.213
109 | ACTGGTGC | -0.0311
110 | GTAGGGAC | -0.0289
111 | CATATGAG | -0.12
112 | GGCAGGAA | -0.102
113 | GTACGGTA | 0.0183
114 | ACCAAGAC | -0.0972
115 | ATCCGAAA | -0.155
116 | TCAGTTAA | 0.135
117 | ACTGCATG | 0.235
118 | TAAGCTTA | 0.269
119 | TTCAAAAA | 0.0951
120 | CCATCTGA | -0.104
121 | CAAGCAAA | 0.117
122 | CACACATC | 0.144
123 | GTCGGACA | -0.0634
124 | TGGAGACA | -0.153
125 | AGGATATA | 0.116

Row | Sequence | PBM E-score
126 | GCTTTAGA | -0.141
127 | CCAGTGTA | 0.183
128 | ACAGCATG | 0.168
129 | AATAGCCT | -0.143
130 | GGCGACCA | -0.23
131 | GTAGAACA | 0.169
132 | GGCTGTTA | 0.173
133 | CGTCGTTA | -0.00484
134 | AACTAATT | 0.122
135 | GCTTTCTA | 0.155
136 | CACACAAG | 0.248
137 | CAATGTTA | 0.284
138 | CGGGACAC | -0.119
139 | ACCTCGCC | -0.31
140 | AAAACTGG | -0.124
141 | ACAGCACT | 0.198
142 | CGAAGCAC | -0.0778
143 | TATACATA | 0.445
144 | ATGGTGAC | -0.18
145 | AGGGACTA | -0.237
146 | AATGATGG | 0.0828
147 | CAGAACTC | -0.14
148 | AATTCCCG | 0.159
149 | CAAGAATG | -0.0486
150 | GATAACAC | 0.39

Row | Sequence | PBM E-score
151 | AGGTATCC | 0.0371
152 | ACATACAC | 0.404
153 | GTGCTGCA | -0.163
154 | GGAGGAAA | -0.125
155 | GCGTGCGA | -0.0602
156 | GCTGACGA | -0.0654
157 | CGTGAAAA | 0.0977
158 | CCCGGAGA | -0.219
159 | ATCAGGGC | -0.195
160 | CTTCATCA | -0.0341
161 | CGATAGGC | -0.00026
162 | CACAAGGA | 0.139
163 | ATAAAGCC | -0.233
164 | GTTCGAGA | 0.0922
165 | AATTGCGG | -0.0237
166 | ACTGGGGG | -0.418
167 | CAGTAGAA | -0.0651
168 | AACTTCCT | 0.0594
169 | GCGACGCC | -0.212
170 | CGGGTGAC | -0.107
171 | GCCGTCAC | -0.198
172 | AGAATATG | 0.0641
173 | CTATTCTA | -0.0126
174 | CGTTTACC | 0.0999
175 | GATCCAAC | -0.117

Row | Sequence | PBM E-score
176 | CTTACAAC | 0.301
177 | CTGAGCAG | 0.0103
178 | AACGCCGC | -0.00885
179 | GTAGTAAC | 0.165
180 | CCCTATAG | -0.281
181 | AAGAAGAC | -0.0184
182 | CCCGATCA | -0.194
183 | AACCCACA | 0.0824
184 | CAGAATTC | -0.092
185 | GGACCGAC | -0.241
186 | CACAGTGG | 0.0645
187 | GACCTGGC | -0.267
188 | GATGTGCC | -0.334
189 | GGGATAGA | -0.306
190 | AACATGGA | 0.346
191 | AGTAACGG | -0.105
192 | CGGCCCTC | -0.27
193 | GGGATCAC | -0.195
194 | AGGAGTAT | -0.053
195 | CCGATAGC | -0.327
196 | AGATAGCC | -0.18
197 | ATCTTCTG | -0.0648
198 | CGCAGACC | -0.241
199 | CCCGACGC | -0.281
200 | TACCCATA | -0.076

Row | Sequence | PBM E-score
201 | GCTAGCAC | -0.0845
202 | CCTCCGCA | -0.147
203 | GGGTGTGA | -0.13
204 | CATCCATA | -0.0918
205 | CACAGGAA | 0.0626
206 | GCATTGAC | 0.0683
207 | ACAATCGG | 0.0747
208 | AACACGAC | 0.424
209 | GGTGTTAC | 0.223
210 | ACTTAGCA | 0.0572
211 | CCACCTCA | -0.262
212 | AATCTCAA | -0.00841
213 | GAGCTTCC | -0.135
214 | GCTCCTCC | -0.3
215 | CACCGCAA | -0.0276
216 | ATGCTGGA | -0.0513
217 | AGACAAAA | -0.0151
218 | AAGTGACA | 0.241
219 | GCAGCGGA | -0.0923
